{
  "source": "paper PMC10166177",
  "molecular_target": "T1, Flag-tagged full-length RNPS1 (UniProt Q99M28)",
  "T1 sequence": "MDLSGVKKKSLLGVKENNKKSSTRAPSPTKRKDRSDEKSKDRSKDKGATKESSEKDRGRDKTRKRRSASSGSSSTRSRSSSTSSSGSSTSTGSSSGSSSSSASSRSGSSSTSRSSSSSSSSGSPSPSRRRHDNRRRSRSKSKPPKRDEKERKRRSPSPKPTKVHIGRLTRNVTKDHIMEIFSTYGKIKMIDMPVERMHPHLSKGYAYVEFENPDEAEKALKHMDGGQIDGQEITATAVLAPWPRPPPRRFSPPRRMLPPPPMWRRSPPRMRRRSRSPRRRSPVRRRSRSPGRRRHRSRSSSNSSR",
  "assay": "co-IP; HEK293 cells (legend; the text says N2a cells) expressing HA-SNIP1 and/or Flag-tagged full-length or domain-truncated RNPS1",
  "note": "Results are given in words; binding and its absence hold for the method and conditions named. Binding seen in cells or lysates may run through a third protein. Some results given as binding are weak or reduced against the parent protein; the word gives no strength. Sequences can lack the tags named with a protein.",
  "data": [
    {"binder": "HA-SNIP1 (protein, UniProt Q8BIZ6 1-383) MKAGKSERERSGRRRHRSGDALTTVVVKQERLSPEPVAHRRPDAPAASLSPPAAEPGHSGHRGSRARSPAKKKSKSSGRRSKSPRTKRSQSPHYPMVKVKQEREDHPRRGREDRQHREPSEQEHRRARNSERDRHRGHSRQGRSSDERPVSGQDRDRDSQNLQAQEEERDFHNARRREHRQQNESAGSEAQEVIPRPAGNRSKEVPVKEKPSFELSGALLEDTNTFRGVVIKYSEPPEARIPKKRWRLYPFKNDEVLPVMYIHRQSAYLLGRHRRIADIPIDHPSCSKQHAVFQYRLVEYTRADGTVGRRVKPYIIDLGSGNGTFLNNKRIEPQRYYELKEKDVLKFGFSSREYVLLHESSDTSELDRKEDEDDEEEEMVSDS", "values": [
      {"measurement": "binding", "result": "binds"}
    ]}
  ]
}
